Structures are written as SMILES. Hit rate of the full screen: of about 52,000 compounds, about 4,300 (8.3%) were called active. No stated cut-off is given here; in the data, active means survival mostly below about 52% (no sharp cut-off); inactive means mostly above about 56%. The list shows a part of the results.

The test system of the assay is DeltatarO mutant. In words: growth inhibition of S. aureus wild type versus tarO mutant, primary screen, teichoic acid synthesis inhibitors, RN4220, OD600 (AID 463173). To be noted: OD600, 18 h, hits give low values, screened at 18.75 µg/mL (by protocol).
Consider `CC1(C)CC(=O)c2cc(C(=O)NC(C)(C)C)c(=O)n(-c3ccccc3)c2C1`, for which the survival was active: 39%.
In the case of `Cc1cc(C)cc(N2C(=O)CC(c3ccc(C(F)(F)F)cc3)C3=C2COC3=O)c1` (centres undefined), the survival is inactive: 72%.
The value for `Cc1cccc(NC(=O)CSc2nc(-c3cccs3)cc(C(F)(F)F)c2C#N)c1` was inactive: 55%; that for `CC(=O)N1CCN(CCN2C(=O)C3C4c5ccccc5C(c5ccccc54)C3C2=O)CC1` (centres undefined) was inactive: 94%.
The value for `CCN1CCN(c2csc3ccc(Cl)cc3c2=O)CC1` was inactive: 80%.
The value for `COc1ccc(Cn2c(SCC(=O)NCc3ccccc3)nc3ccccc32)cc1` was inactive: 117%.
Consider `CCOc1ccc(NC(=O)Cn2nnc(C(=O)OC)c2C(=O)OC)cc1`, for which the survival is inactive: 93%.
The same measure for `Cc1ccc(C(=O)NCC(=O)OCc2cc(=O)n3nc(C4CCCCC4)sc3n2)cc1`: inactive: 71%; for `Cc1cccc(OCc2ccc(-c3nc(C#N)c(N4CCN(c5ccccc5)CC4)o3)o2)c1`: inactive: 118%.
For `Cc1ccc(C)c(CN2C(=O)c3ccccc3Sc3ccc(C(=O)NCc4ccco4)cc32)c1`, the survival is active: 17%.
Consider `Cc1cc(C)c2oc(C(=O)Nc3c(C(=O)c4ccc(F)cc4)oc4ccccc34)cc(=O)c2c1`, for which the survival is inactive: 113%.
As for `CCc1cccc(C)c1Nc1c(-c2ccc(N(C)C)cc2)nc2ncccn12`, the survival is inactive: 130%.
The same measure for `Cc1cc(S(=O)(=O)Nc2cccc(-c3ccc(N4CCOCC4)nn3)c2)c(C)cc1Cl`: inactive: 80%.
The same measure for `COc1cccc(NC(=O)CSc2nc(O)c(C/C=C/c3ccccc3)c(=O)[nH]2)c1`: inactive: 92%; for `COc1ccc(N2CCN(S(=O)(=O)c3ccc(-c4cc(C(F)(F)F)on4)s3)CC2)cc1`: inactive: 72%; for `Cc1ccc(CCNC(=O)c2sc3ncccc3c2-n2cccc2)cc1`: inactive: 103%.
The value for `CCC(=O)Nc1cc(C(=O)NCc2ccc(C)cc2)ccc1S(=O)(=O)c1ccc(C)cc1` was inactive: 97%; that for `CC(=O)Nc1ccc(OCC(O)Cn2ccnc2)cc1` (centres undefined) was inactive: 109%.
In the case of `CCC(C)(C)C(=O)Nc1nnc(COC)s1`, the survival is inactive: 97%.
As to `O=C(NCCSc1c(-c2ccc(Br)cc2)[nH]c2ccccc12)c1ccc(S(=O)(=O)N2CCOCC2)cc1`, the survival is inactive: 72%.
The same measure for `Cc1ccc(CNC(=O)C(CC(C)C)N2Cc3ccccc3C2=O)cc1` (centres undefined): inactive: 124%; for `Cc1cc(C)cc(NC(=O)C(Cc2ccccc2)N2Cc3ccccc3C2=O)c1` (centres undefined): inactive: 81%; for `Clc1cccc(-n2ncc3c(NCCCc4ccccc4)ncnc32)c1`: inactive: 95%.
The same measure for `CCN(CC)c1ccc(NC(=O)Cn2c(C)c3cnn(-c4ccccc4)c(=O)c3c2C)c(C)c1`: inactive: 87%; for `CCC(C(=O)N1CCN(c2ccccn2)CC1)c1ccccc1` (centres undefined): inactive: 75%.
The same measure for `COC(=O)c1c(-c2cccs2)csc1NC(=O)c1cc(OC)cc(OC)c1`: inactive: 69%.
Regarding `CCCCn1c(-c2ccc(S(=O)(=O)N3CCOCC3)cc2)csc1=Nc1ccccc1`, the survival is active: 48%.
The value for `Cc1cccc(Cn2c(CN3CCC(C(=O)NCCc4ccccc4)CC3)cc3ccccc32)c1` was inactive: 120%; that for `COc1ccc(C(=O)Nc2cc(C(F)(F)F)ccc2N2CCN(c3ccccc3)CC2)cc1OC` was inactive: 62%.
The value for `O=C(CCCSc1nc(-c2ccco2)cc(C(F)(F)F)n1)NC1CCCCC1` was inactive: 86%.
The same measure for `COc1ccc(-c2c(C)nn3c4c(cnc23)C(=O)CC(c2ccc(C)cc2)C4)cc1` (centres undefined): inactive: 124%; for `CCN(c1cccc(C)c1)S(=O)(=O)c1nnc(NC(=O)c2cccs2)s1`: active: 21%.
Take `Cc1c(C(=O)Nc2ccccc2Br)oc2ccc(S(=O)(=O)N3CCCCC3)cc12`: the survival was inactive: 78%.
The value for `Cc1ccc(CSCC(=O)N2CCN(Cc3ccc4c(c3)OCO4)CC2)cc1` was inactive: 80%; that for `COc1ccc(C2c3c(-c4ccccc4O)n[nH]c3C(=O)N2Cc2ccco2)cc1` (centres undefined) was active: 1%; that for `CCOC(=O)C1=C(CN2CCN(c3ccccc3)CC2)NC(=O)NC1c1ccc(C)cc1` (centres undefined) was inactive: 115%.
On to `CCN1/C(=C/C=C2\SC(=S)N(C)C2=O)Oc2ccccc21`, for which the survival is inactive: 82%.
Take `Cc1sc2ncn(CC(=O)Nc3cccc(C(F)(F)F)c3)c(=O)c2c1S(=O)(=O)N1CCC(C)CC1`: the survival was inactive: 76%.
For `COc1cccc(C(=O)NC(=O)Nc2ccc(-c3cc(C(F)(F)F)nn3-c3ccccc3)cc2)c1`, the survival is inactive: 155%.
The same measure for `O=C(Nc1ccccc1C(=O)OCc1cc(=O)n2nc(C3CC3)sc2n1)c1cccc(Cl)c1`: inactive: 84%; for `Cc1cc(C)cc(NC(=O)NCCn2nnc3cc(S(=O)(=O)N(C)C)ccc32)c1`: inactive: 115%.
The same measure for `CSc1ncc(Cl)c(C(=O)N(Cc2ccccc2Cl)C2CCS(=O)(=O)C2)n1` (centres undefined): inactive: 112%; for `CCOc1ccc(C(=O)OCc2cc(=O)n3nc(C4CCCCC4)sc3n2)cc1`: inactive: 70%; for `CCC(=O)Nc1nnc(S(=O)(=O)N(C)Cc2ccccc2)s1`: inactive: 87%.
The same measure for `COc1cccc(NC(=O)Cn2c(=O)n(-c3ccc(CC(=O)NCC4CCCO4)cc3)c(=O)c3ccccc32)c1` (centres undefined): inactive: 90%; for `C=CCn1c(=O)/c(=C2/Sc3ccccc3N2CC)s/c1=C1/C(=O)NN=C1C`: inactive: 89%; for `O=C(NCCc1csc(-c2cccnc2)n1)c1cccc(C(F)(F)F)c1`: inactive: 77%.
In the case of `CCc1nnc2c3ccccc3nc(N3CCN(c4ccc(C)cc4C)CC3)n12`, the survival is inactive: 71%.
The same measure for `CCOc1ccc(NC(=O)Cn2c(C)ccc(C#N)c2=O)cc1`: inactive: 171%; for `O=c1[nH]c(=O)n(CCC2=CCCCC2)c(O)c1/C=C1/C=CC=N1`: inactive: 69%.
In the case of `COc1ccccc1CNC(=O)c1ccc(C)c(-n2cnc3cccnc32)c1`, the survival is inactive: 98%.
The same measure for `O=C(NCC1CCCCC1)C1CCCN1C(=O)NC1CCCCC1` (centres undefined): inactive: 91%.
The value for `Cc1ccc(C)c(NC(=O)CSc2cn(CC(=O)N3CCCC3)c3ccccc23)c1` was inactive: 99%.
As to `CCCN1C(=O)C(NC(=O)c2ccccc2OC)(C(F)(F)F)C(C(=O)OC)=C1C` (centres undefined), the survival was inactive: 76%.
The same measure for `CCOc1ccc(NC(=O)Cc2csc(COc3cccc(C)c3)n2)cc1`: inactive: 85%; for `Cc1ccc2nc(NC(=O)c3cc(=O)c4cc(C)c(C)cc4o3)sc2c1`: inactive: 54%.
Consider `CCOc1ccccc1C1C(C(=O)Nc2ccccc2OC)=C(C)Nc2nc3ccccc3n21` (centres undefined), for which the survival is active: 59%.
The value for `COc1cc(/C=C/c2nc(C#N)c(NC3CCCCC3)o2)cc(OC)c1OC` was active: 32%; that for `COc1ncnc(Cl)c1N` was inactive: 75%.
With `CC(C(=O)N(C(C)C)C(C)C)N1CCN(C)CC1` (centres undefined), the survival was inactive: 92%.
For the compound `CCOC(=O)Nc1nnc(-c2ccccc2)s1`, the survival was inactive: 76%.
Take `Cc1ccc(CNc2nc3c(S(=O)(=O)c4ccccc4)nnn3c3ccsc23)cc1`: the survival is inactive: 71%.
The same measure for `O=C(/C=C/c1cn(CC(O)CN2CCCCCC2)c2ccccc12)c1ccccc1` (centres undefined): inactive: 49%; for `Cc1cc(Br)ccc1NC(=O)c1cc2c(s1)-c1ccccc1SC2`: inactive: 68%.
In the case of `COc1ccc(C(=O)N/N=C2/SCC(=O)N2C)c(OC)c1`, the survival is inactive: 69%.
Turning to `COc1ccc(CN2C(=O)C(NC(=O)c3ccc(C)cc3)(C(F)(F)F)N=C2c2ccccc2)cc1` (centres undefined), the survival was inactive: 74%.
The same measure for `COc1ccccc1NC(=O)CSc1nc2c(oc3ccccc32)c(=O)n1-c1ccc(C)cc1`: inactive: 80%.
The same measure for `COc1ccc(NS(=O)(=O)c2nnc(NC(=O)c3ccccc3F)s2)cc1`: inactive: 72%; for `CCOC(=O)N1CCc2c(sc3c2c(=O)n(-c2ccc(Cl)cc2)c(=O)n3CC(=O)c2ccc(F)cc2)C1`: inactive: 77%; for `CC(=O)N1CCC(N(Cc2ccco2)C(=O)Nc2cccc(C)c2)CC1`: inactive: 130%.
The same measure for `CCOC(=O)c1cc2c(=O)n3ccccc3nc2n(CC2CCCO2)c1=NC(=O)c1cccc(C(F)(F)F)c1` (centres undefined): inactive: 97%; for `COc1ccc(-c2cc(C(=O)Nc3c(C(=O)c4ccc(Cl)cc4)oc4ccccc34)no2)cc1`: inactive: 56%; for `Cc1cccc(NC(=O)c2cnn(-c3ccccc3)c2-n2cccc2)c1C`: inactive: 77%.
On to `Cc1ccc2nc(NCCCNC(=O)c3cnccn3)c(C#N)cc2c1`, for which the survival was inactive: 97%.
Turning to `CCC1CN(C(=O)N2CCC(C(=O)NCc3ccc(C)o3)CC2)c2cc(C)ccc2O1` (centres undefined), the survival is inactive: 76%.
The same measure for `CCOC(=O)N1CCN(S(=O)(=O)N2CCCC(C(=O)NCc3cccc(OC)c3)C2)CC1` (centres undefined): inactive: 84%; for `O=C(NCC(c1cccs1)S(=O)(=O)c1cccs1)c1ccccc1` (centres undefined): inactive: 94%; for `CC(NC(=O)Cn1ncc2c3ccccc3n(Cc3ccc(F)cc3)c2c1=O)c1ccccc1` (centres undefined): inactive: 90%.
As for `CCOC(=O)c1ccc(NC(=O)C2Cc3ccccc3CN2S(=O)(=O)c2ccc(Cl)cc2)cc1` (centres undefined), the survival is inactive: 53%.
Turning to `Cc1cc(Br)ccc1NC(=O)CCS(=O)(=O)c1cccc2nonc12`, the survival is inactive: 83%.
The value for `Cc1ccc(C)c(N2CCN(C(=O)CN3C(=O)COc4ccc(S(=O)(=O)N5CCCCCC5)cc43)CC2)c1` was inactive: 86%; that for `CC(=O)c1sc2c(c1C)c(=O)n(-c1ccc(Cl)cc1)c(=O)n2Cc1ccc(Cl)cc1` was inactive: 55%; that for `Cc1cc(C)c(Cn2c(C)c(CNCCCc3ccccc3)c(C(=O)O)c2C)c(C)c1` was inactive: 81%.
The same measure for `CCCCON1C(=O)c2cccc3cccc(c23)C1=O`: inactive: 77%; for `O=C(Nc1c(C(=O)N2CCOCC2)cnn1-c1ccccc1)c1ccccc1F`: inactive: 88%.
The value for `COc1ccccc1NC(=O)n1ncc2c(C)cccc21` was inactive: 82%; that for `CCOC(=O)c1nnc2c(-c3ccc(OC)cc3)c(C)nn2c1N` was inactive: 130%; that for `CCOC(=O)c1cc2sc(C)cc2n1CC` was inactive: 122%.
As to `CC(=O)N1CCCc2cc(S(=O)(=O)N3CCC(C(=O)NCCC(C)C)CC3)ccc21`, the survival is inactive: 91%.

For the origin of these results see PubChem BioAssay AID463173 (ICCB-Longwood Screening Facility, Harvard Medical School, 2010).
